According to the supplement of paper PMC4604168 (melanoma cell lines):
This is one part of the list. Most values come without repeats; read them as rough.

How the values were obtained:
Experiment in all cases: cell count relative to DMSO control; melanoma cells; higher = more viable cells
Details in all cases: library dose: low library concentration; 72 h
MZ2-MEL = tested on: MZ2-MEL
MeWo = tested on: MeWo
RPMI7951 = tested on: RPMI7951
RVH-421 = tested on: RVH-421
SkMel28 = tested on: SkMel28
SkMel2 = tested on: SkMel2
SkMel30 = tested on: SkMel30
UACC62 = tested on: UACC62
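Note: cell number obtained by counting DAPI-stained nuclei in high-throughput microscope images with image analysis software, screen run in 1,536-well plates.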

Cc1cc(Nc2cc(N3CCN(C)CC3)nc(Sc3ccc(NC(=O)C4CC4)cc3)n2)n[nH]1 [Tozasertib] + Cn1sc(=O)n(Cc2ccccc2)c1=O [TDZD-8] (first compound 0.006 µM, partner dose 0.4 µM)
cell count (MZ2-MEL): 96.2%
cell count (MeWo): 104%
cell count (RPMI7951): 92.7%
cell count (RVH-421): 89.2%
cell count (SkMel28): 85.8%
cell count (SkMel2): 108%
cell count (SkMel30): 95.4%
cell count (UACC62): 84.3%

CC[C@]1(O)C[C@H]2CN(CCc3c([nH]c4ccccc34)[C@@](C(=O)OC)(c3cc4c(cc3OC)N(C=O)[C@H]3[C@@](O)(C(=O)OC)[C@H](OC(C)=O)[C@]5(CC)C=CCN6CC[C@]43[C@@H]65)C2)C1 [vincristine] + Cc1nc(Nc2ncc(C(=O)Nc3c(C)cccc3Cl)s2)cc(N2CCN(CCO)CC2)n1 [dasatanib] (first compound 0.0001 µM, partner dose 0.004 µM)
cell count (MZ2-MEL): 79.5%
cell count (MeWo): 74.9%
cell count (RPMI7951): 39.8%
cell count (RVH-421): 70.8%
cell count (SkMel28): 65.7%
cell count (SkMel2): 87.6%
cell count (SkMel30): 55.9%
cell count (UACC62): 54.4%

CC[C@]1(O)C[C@H]2CN(CCc3c([nH]c4ccccc34)[C@@](C(=O)OC)(c3cc4c(cc3OC)N(C=O)[C@H]3[C@@](O)(C(=O)OC)[C@H](OC(C)=O)[C@]5(CC)C=CCN6CC[C@]43[C@@H]65)C2)C1 [vincristine] + Cc1cn(-c2cc(NC(=O)c3ccc(C)c(Nc4nccc(-c5cccnc5)n4)c3)cc(C(F)(F)F)c2)cn1 [nilotinib] (first compound 0.0001 µM, partner dose 0.2 µM)
cell count (MZ2-MEL): 98.8%
cell count (MeWo): 71.4%
cell count (RPMI7951): 65.9%
cell count (RVH-421): 63.8%
cell count (SkMel28): 49.7%
cell count (SkMel2): 80.9%
cell count (SkMel30): 60.8%
cell count (UACC62): 52.5%

Cc1cc(Nc2cc(N3CCN(C)CC3)nc(Sc3ccc(NC(=O)C4CC4)cc3)n2)n[nH]1 [Tozasertib] + CN(c1ncccc1CNc1nc(Nc2ccc3c(c2)CC(=O)N3)ncc1C(F)(F)F)S(C)(=O)=O [PF562271] (first compound 0.006 µM, partner dose 0.08 µM)
cell count (MZ2-MEL): 92.2%
cell count (MeWo): 90.2%
cell count (RPMI7951): 75.9%
cell count (RVH-421): 102%
cell count (SkMel28): 92.4%
cell count (SkMel2): 92.5%
cell count (SkMel30): 93.9%
cell count (UACC62): 93%

N#CC[C@H](C1CCCC1)n1cc(-c2ncnc3[nH]ccc23)cn1 [ruxolitinib] + C#Cc1cccc(Nc2ncnc3cc(OCCOC)c(OCCOC)cc23)c1 [erlotinib] (first compound 1 µM, partner dose 0.8 µM)
cell count (MZ2-MEL): 104%
cell count (MeWo): 90.2%
cell count (RPMI7951): 92.6%
cell count (RVH-421): 89.6%
cell count (SkMel28): 107%
cell count (SkMel2): 104%
cell count (SkMel30): 103%
cell count (UACC62): 121%

Cc1cc(Nc2cc(N3CCN(C)CC3)nc(Sc3ccc(NC(=O)C4CC4)cc3)n2)n[nH]1 [Tozasertib] + CCCCCCCCc1ccc(CCC(N)(CO)CO)cc1 [fingolimod] (first compound 0.006 µM, partner dose 2 µM)
cell count (MZ2-MEL): 89.5%
cell count (MeWo): 97.1%
cell count (RPMI7951): 98.2%
cell count (RVH-421): 106%
cell count (SkMel28): 81.9%
cell count (SkMel2): 88.8%
cell count (SkMel30): 109%
cell count (UACC62): 88.6%

Cc1cc(Nc2cc(N3CCN(C)CC3)nc(Sc3ccc(NC(=O)C4CC4)cc3)n2)n[nH]1 [Tozasertib] + Clc1ccc(Nc2nnc(Cc3ccncc3)c3ccccc23)cc1 [vatalanib] (first compound 0.006 µM, partner dose 2 µM)
cell count (MZ2-MEL): 92.8%
cell count (MeWo): 72.6%
cell count (RPMI7951): 93.7%
cell count (RVH-421): 97.5%
cell count (SkMel28): 91.7%
cell count (SkMel2): 96.9%
cell count (SkMel30): 111%
cell count (UACC62): 83.8%

CC[C@]1(O)C[C@H]2CN(CCc3c([nH]c4ccccc34)[C@@](C(=O)OC)(c3cc4c(cc3OC)N(C=O)[C@H]3[C@@](O)(C(=O)OC)[C@H](OC(C)=O)[C@]5(CC)C=CCN6CC[C@]43[C@@H]65)C2)C1 [vincristine] + COc1cc([C@@H]2c3cc4c(cc3[C@@H](O[C@@H]3O[C@@H]5CO[C@@H](C)O[C@H]5[C@H](O)[C@H]3O)[C@H]3COC(=O)[C@H]23)OCO4)cc(OC)c1O [etoposide] (first compound 0.0001 µM, partner dose 0.02 µM)
cell count (MZ2-MEL): 77.8%
cell count (MeWo): 82.4%
cell count (RPMI7951): 54.5%
cell count (RVH-421): 98.5%
cell count (SkMel28): 69%
cell count (SkMel2): 84.7%
cell count (SkMel30): 62.5%
cell count (UACC62): 49.1%

N#CC[C@H](C1CCCC1)n1cc(-c2ncnc3[nH]ccc23)cn1 [ruxolitinib] + Nc1ncn([C@H]2C[C@H](O)[C@@H](CO)O2)c(=O)n1 [decitabine] (first compound 1 µM, partner dose 0.1 µM)
cell count (MZ2-MEL): 88.3%
cell count (MeWo): 101%
cell count (RPMI7951): 75.6%
cell count (RVH-421): 73.3%
cell count (SkMel28): 96.5%
cell count (SkMel2): 104%
cell count (SkMel30): 107%
cell count (UACC62): 87.7%

Cc1cc(Nc2cc(N3CCN(C)CC3)nc(Sc3ccc(NC(=O)C4CC4)cc3)n2)n[nH]1 [Tozasertib] + CN1CCN(c2ccc3nc(-c4c(N)c5c(F)cccc5[nH]c4=O)[nH]c3c2)CC1 [Dovitinib] (first compound 0.006 µM, partner dose 0.1 µM)
cell count (MZ2-MEL): 95.2%
cell count (MeWo): 93.5%
cell count (RPMI7951): 113%
cell count (RVH-421): 98.6%
cell count (SkMel28): 107%
cell count (SkMel2): 100%
cell count (SkMel30): 76.5%
cell count (UACC62): 90.3%

Cc1cc(Nc2cc(N3CCN(C)CC3)nc(Sc3ccc(NC(=O)C4CC4)cc3)n2)n[nH]1 [Tozasertib] + O=C(Nc1cc(C(F)(F)F)cc(C(F)(F)F)c1)c1cc(Cl)ccc1O [IMD0354] (first compound 0.006 µM, partner dose 0.016 µM)
cell count (MZ2-MEL): 96.2%
cell count (MeWo): 90.1%
cell count (RPMI7951): 104%
cell count (RVH-421): 77.1%
cell count (SkMel28): 92.5%
cell count (SkMel2): 102%
cell count (SkMel30): 84.6%
cell count (UACC62): 102%

CC[C@]1(O)C[C@H]2CN(CCc3c([nH]c4ccccc34)[C@@](C(=O)OC)(c3cc4c(cc3OC)N(C=O)[C@H]3[C@@](O)(C(=O)OC)[C@H](OC(C)=O)[C@]5(CC)C=CCN6CC[C@]43[C@@H]65)C2)C1 [vincristine] + CNC(=O)c1cc(Oc2ccc(NC(=O)Nc3ccc(Cl)c(C(F)(F)F)c3)cc2)ccn1 [sorafenib] (first compound 0.0001 µM, partner dose 0.4 µM)
cell count (MZ2-MEL): 80.5%
cell count (MeWo): 78.6%
cell count (RPMI7951): 36.7%
cell count (RVH-421): 80.8%
cell count (SkMel28): 69.4%
cell count (SkMel2): 78.1%
cell count (SkMel30): 60%
cell count (UACC62): 54.8%

Cc1cc(Nc2cc(N3CCN(C)CC3)nc(Sc3ccc(NC(=O)C4CC4)cc3)n2)n[nH]1 [Tozasertib] + C#Cc1cccc(Nc2ncnc3cc(OCCOC)c(OCCOC)cc23)c1 [erlotinib] (first compound 0.006 µM, partner dose 0.8 µM)
cell count (MZ2-MEL): 103%
cell count (MeWo): 84.2%
cell count (RPMI7951): 118%
cell count (RVH-421): 88.7%
cell count (SkMel28): 103%
cell count (SkMel2): 93.4%
cell count (SkMel30): 81.4%
cell count (UACC62): 79.8%

CC[C@]1(O)C[C@H]2CN(CCc3c([nH]c4ccccc34)[C@@](C(=O)OC)(c3cc4c(cc3OC)N(C=O)[C@H]3[C@@](O)(C(=O)OC)[C@H](OC(C)=O)[C@]5(CC)C=CCN6CC[C@]43[C@@H]65)C2)C1 [vincristine] + Nc1nc(F)nc2c1ncn2[C@@H]1O[C@H](CO)[C@@H](O)[C@@H]1O [fludarabine] (first compound 0.0001 µM, partner dose 0.2 µM)
cell count (MZ2-MEL): 92.1%
cell count (MeWo): 24.7%
cell count (RPMI7951): 65.2%
cell count (RVH-421): 64%
cell count (SkMel28): 62.1%
cell count (SkMel2): 10.8%
cell count (SkMel30): 14.8%
cell count (UACC62): 45.8%

CC[C@]1(O)C[C@H]2CN(CCc3c([nH]c4ccccc34)[C@@](C(=O)OC)(c3cc4c(cc3OC)N(C=O)[C@H]3[C@@](O)(C(=O)OC)[C@H](OC(C)=O)[C@]5(CC)C=CCN6CC[C@]43[C@@H]65)C2)C1 [vincristine] + CS(=O)(=O)CCNCc1ccc(-c2ccc3ncnc(Nc4ccc(OCc5cccc(F)c5)c(Cl)c4)c3c2)o1 [lapatinib] (first compound 0.0001 µM, partner dose 0.8 µM)
cell count (MZ2-MEL): 82.9%
cell count (MeWo): 49%
cell count (RPMI7951): 44.8%
cell count (RVH-421): 60.1%
cell count (SkMel28): 49%
cell count (SkMel2): 63.4%
cell count (SkMel30): 43.2%
cell count (UACC62): 34.3%

CC[C@]1(O)C[C@H]2CN(CCc3c([nH]c4ccccc34)[C@@](C(=O)OC)(c3cc4c(cc3OC)N(C=O)[C@H]3[C@@](O)(C(=O)OC)[C@H](OC(C)=O)[C@]5(CC)C=CCN6CC[C@]43[C@@H]65)C2)C1 [vincristine] + COCC[n+]1c2c(n(Cc3cnccn3)c1C)C(=O)c1ccccc1C2=O [YM155] (first compound 0.0001 µM, partner dose 0.0004 µM)
cell count (MZ2-MEL): 57.2%
cell count (MeWo): 86%
cell count (RPMI7951): 47.8%
cell count (RVH-421): 91.6%
cell count (SkMel28): 82.4%
cell count (SkMel2): 89.7%
cell count (SkMel30): 47.8%
cell count (UACC62): 51.3%

N#CC[C@H](C1CCCC1)n1cc(-c2ncnc3[nH]ccc23)cn1 [ruxolitinib] + COc1cc([C@@H]2c3cc4c(cc3[C@@H](O[C@@H]3O[C@@H]5CO[C@@H](C)O[C@H]5[C@H](O)[C@H]3O)[C@H]3COC(=O)[C@H]23)OCO4)cc(OC)c1O [etoposide] (first compound 1 µM, partner dose 0.02 µM)
cell count (MZ2-MEL): 112%
cell count (MeWo): 91.1%
cell count (RPMI7951): 96.6%
cell count (RVH-421): 104%
cell count (SkMel28): 104%
cell count (SkMel2): 104%
cell count (SkMel30): 121%
cell count (UACC62): 116%

Cc1cc(Nc2cc(N3CCN(C)CC3)nc(Sc3ccc(NC(=O)C4CC4)cc3)n2)n[nH]1 [Tozasertib] + O=C(O)[C@@H]1[O][Sb](=[O])([O][Sb]2(=[O])[O][C@H]([C@H](O)CO)[C@H](O)[C@H](C(=O)O)[O]2)[O][C@H]([C@H](O)CO)[C@@H]1O [stibogluconate] (first compound 0.006 µM, partner dose 2 µM)
cell count (MZ2-MEL): 111%
cell count (MeWo): 82.9%
cell count (RPMI7951): 107%
cell count (RVH-421): 110%
cell count (SkMel28): 90.3%
cell count (SkMel2): 98%
cell count (SkMel30): 82.7%
cell count (UACC62): 88.4%

Cc1cc(Nc2cc(N3CCN(C)CC3)nc(Sc3ccc(NC(=O)C4CC4)cc3)n2)n[nH]1 [Tozasertib] + COc1ccc(Cl)c(Nc2nc3ccccc3nc2NS(=O)(=O)c2cccc(NC(=O)C(C)(C)N)c2)c1 [XL147] (first compound 0.006 µM, partner dose 0.8 µM)
cell count (MZ2-MEL): 91.3%
cell count (MeWo): 84.6%
cell count (RPMI7951): 97.2%
cell count (RVH-421): 84.7%
cell count (SkMel28): 92%
cell count (SkMel2): 97.6%
cell count (SkMel30): 101%
cell count (UACC62): 90.5%
